A word on the % Inhibition: it is the change of the read-out against control, counted positive when it falls.

Among all 150,000 compounds or so, about 540 (0.36%) showed an effect of 50% or more. The list shows a part of the results.

For this experiment, the system named is Plasmodium falciparum. The experiment can be described thus: Primary screen in NF54 nanoGlo assay, in single point, at 2uM, 72h; a lower Z score goes with more inhibition. The settings on record: timepoint 72 hour. It is filed as functional, Erythrocyte.
Take `Cc1ccc(-c2ccc(C(=O)NCCC3=CCCCC3)cn2)cc1`: the “% Inhibition” value is reported as -21% and the Z score stood at 2.1.
The matching figures for `Cn1nccc1-c1ccc(CNC(=O)[C@@H]2CCCO2)cn1`: -6% and 0.7.
Take `Cc1ccc(CNS(=O)(=O)c2cc(-c3nc(C)c(C(=O)N4CCCCC4)s3)cs2)cc1`: the “% Inhibition” value was 0% and the Z score was found to be 0.04.
Turning to `c1ccc2oc(-c3ccnc4ccccc34)nc2c1`, the “% Inhibition” value is on record as 0% and the Z score turned out to be 0.04.
As to `CCOc1ccccc1N(C)C(=O)Nc1nnc(CC)s1`, the “% Inhibition” value was -19% and the Z score amounted to 3.59.
Turning to `O=C(O)c1ccc(CN2C(=O)C3CCCCC3C2=O)cc1` (stereo not given), the “% Inhibition” value is given as 34% and the Z score is recorded as -3.85.
The matching figures for `CCn1c(CC2CCN(C(=O)c3cnccc3C)CC2)nn(C)c1=O`: -3% and 0.51.
As for `CCOc1ccccc1CN1C[C@@H]2CC[C@H]1CN(S(=O)(=O)N(C)C)C2`, the “% Inhibition” value is listed as -8% and the Z score was 0.96.
With `O=C(NC(N1CCc2ccccc2C1)(C(F)(F)F)C(F)(F)F)c1ccccc1`, the “% Inhibition” value is recorded as -14% and the Z score came to 2.03.
The like results for `CCc1c(C(=O)NC[C@H]2Cc3ccccc3O2)ccn1C` were, in that order, -12% and 1.56.
The like results for `C[C@@H](Cc1nnc(NC(=O)COc2ccc(Cl)cc2)s1)c1ccccc1` were, in that order, -17% and 2.48.
The like results for `CCN(CC(=O)O)C1CCN(Cc2csc3ccccc23)CC1` were, in that order, -9% and 0.82.
Turning to `CCNC(=O)CCN1CCc2[nH]nc(-c3ccc(-c4ccccc4)cc3)c2C1`, the “% Inhibition” value is given as -8% and the Z score is given as 0.95.
The like results for `CCN1C[C@@H](c2ccccc2)CC2(CCN(Cc3c(C)noc3C)CC2)C1` were, in that order, -6% and 0.75.
The like results for `C[C@@]1(C(=O)O)CCCN1Cc1ccc2cc[nH]c2n1` were, in that order, -16% and 3.
As for `CCCc1cc(C(=O)N2C[C@@H](CN3C[C@@H](C)O[C@@H](C)C3)[C@@H](CO)C2)n(C)n1`, the “% Inhibition” value is on record as -10% and the Z score was 1.
The like results for `CCC(O)CN1CCOC(CN(CC(C)C)C(=O)c2ccc(OC)cc2)C1` (stereo not given) were, in that order, -12% and 1.41.
As for `COc1ccccc1CCn1nnnc1N1CCC(CO)(OC)CC1`, the “% Inhibition” value is -4% and the Z score was determined as 0.74.
The matching figures for `COc1ccc(OC)c(-c2ncc(NC(=O)c3ccc4ncsc4c3)s2)c1`: -18% and 3.
For the compound `CCOC(=O)N1CCN(C(=O)[C@H]2CCC(=O)N(CCc3ccccc3)C2)CC1`, the “% Inhibition” value stood at 3% and the Z score is listed as -0.54.
The matching figures for `O=C(c1ccc(-c2cccs2)nc1)N1CCN(C2CCCCC2)CC1`: -11% and 2.07.
`Cn1cc(CCC(=O)NC2(CC(=O)OC(C)(C)C)CCCC2)cn1`: the “% Inhibition” value was -9% and the Z score is 1.61.
Consider `CCCNC(=O)[C@@H]1COC2(CCC(C)CC2)N1C(=O)CC` (stereo not given in full), for which the “% Inhibition” value turned out to be 0% and the Z score was found to be 0.06.
The matching figures for `CCC(NC(=O)c1cc(CO)ccn1)[C@H]1C[C@@H](O)C1` (stereo not given in full): -1% and 0.19.
On to `O=C(Nc1ccc2c(c1)OC1(CCCCC1)O2)[C@@H]1Cc2ccccc2O1`, for which the “% Inhibition” value worked out at 8% and the Z score is -0.93.
As to `Cc1ccc(-c2nc(C#N)c(S(=O)(=O)c3ccc(F)cc3)o2)cc1`, the “% Inhibition” value is -5% and the Z score is 0.72.
For `Cc1nc(C(=O)NCc2ncc(Cl)cn2)c[nH]1`, the “% Inhibition” value is listed as -13% and the Z score was 2.1.
Consider `N#Cc1cnn2c(-c3ccncc3)ccnc12`, for which the “% Inhibition” value was -13% and the Z score is 1.4.
The matching figures for `COc1ccccc1Nc1nc(N)nc(COC(=O)c2cc3ccc(F)cc3nc2C)n1`: -12% and 2.22.
Consider `Cc1cccc(OCC(=O)NCC(F)(F)F)c1F`, for which the “% Inhibition” value is recorded as -6% and the Z score stood at 0.57.
Take `Cc1[nH]c2ccccc2c1C1CCN(C(=O)c2ccc(Br)cc2O)CC1`: the “% Inhibition” value came to 35% and the Z score is on record as -4.7.
The matching figures for `CCCCN(C)S(=O)(=O)Nc1ccc(CC#N)cc1`: -1% and 0.09.
The like results for `CC(C)Cn1cncc1CN(C)[C@@H](C)c1ccncn1` were, in that order, -2% and 0.45.
Regarding `COC[C@H]1COCCN1C(=O)c1cccc(Oc2nccs2)c1`, the “% Inhibition” value is recorded as -8% and the Z score is given as 1.52.
Regarding `C=CCOC1CCN(C(=O)C2CC3CCC2O3)CC1` (stereo not given), the “% Inhibition” value is recorded as -11% and the Z score stood at 1.79.
The like results for `O=S(=O)(N[C@@H](Cn1cnc2ccccc21)c1ccc(F)cc1)c1c(F)cccc1F` were, in that order, 5% and -0.43.
The matching figures for `O=C(NC1CC1c1cccc(F)c1)C1COCCN1` (stereo not given): 2% and -0.27.
The like results for `COc1ccc(CC[C@H]2CCCN(C(=O)c3cccnc3OC)C2)cc1` were, in that order, -5% and 0.72.
Turning to `CC(C)c1nnc(COc2cnc(C#N)nc2)s1`, the “% Inhibition” value is recorded as -11% and the Z score was determined as 1.98.
Take `CCc1noc([C@H](C)n2cnc3ncccc3c2=O)n1`: the “% Inhibition” value is -5% and the Z score is 0.6.
The like results for `NC(=O)[C@H](CC1CCCCC1)NC(=O)[C@H]1CN(C(=O)c2cccc(F)c2)CCN1C(=O)C1CCCCC1` were, in that order, 2% and -0.33.
With `Cc1n[nH]c([C@@H]2CCN(Cc3ccccc3)CCN2C(=O)c2cnn(C)c2)n1`, the “% Inhibition” value is -5% and the Z score came out at 0.74.
The like results for `Cc1cc2c(cc1-c1cn(C[C@H](C)Oc3cccnc3)nn1)OCO2` were, in that order, -7% and 1.38.
The matching figures for `Cc1ncsc1CNc1ccc2c(c1)CCN2C(=O)OC(C)(C)C`: 1% and -0.11.
For the compound `Cn1cc[n+](CC(=O)c2ccc(NC(=O)c3ccccc3)cc2)c1`, the “% Inhibition” value is -1% and the Z score is 0.22.
In the case of `CC1(Nc2nc(CC(=O)N3CCOC[C@H]3C#N)cs2)CCCC1`, the “% Inhibition” value is -7% and the Z score was 1.45.
The matching figures for `C[C@H]1CS(=O)(=O)CCN1C(=O)NCCCN(C)c1ccccc1`: -3% and 0.42.
Take `c1cnn(-c2cc(-c3noc([C@@]45CCCC[C@@H]4NCC5)n3)ccn2)c1`: the “% Inhibition” value turned out to be 1% and the Z score is -0.13.
The like results for `COc1ccc(CN2CCO[C@@H](CN(CC(C)C)C(=O)c3ccc(C(F)(F)F)cc3)C2)c(OC)c1` were, in that order, 5% and -0.62.
The like results for `CCC1(CC)CN(C(=O)[C@H]2CCCC[C@@H]2C(F)(F)F)CCS1(=O)=O` were, in that order, 0% and -0.07.
Consider `O=C(CCc1ccco1)NC(C1CC1)C1CC1`, for which the “% Inhibition” value came to 5% and the Z score is -0.8.
The like results for `COc1cc([C@@H]2C3=C(O)N(C(C)=O)CC3=Nc3cccc4c3c2cn4C(C)C)ccc1O` were, in that order, 2% and -0.23.
Consider `CN(C)C(=O)CCN1CCC[C@](C)(F)C1`, for which the “% Inhibition” value stood at 5% and the Z score was -0.98.
The like results for `CCn1ncc(NC(=O)Cn2nc(C)c(-c3ccc4ncccc4c3)c2C)n1` were, in that order, 10% and -1.75.
The matching figures for `CN(C(=O)c1cnc2ccccn2c1=O)C1CCCCC1`: 10% and -0.99.
The matching figures for `O=C1CCN(Cc2cc(C#CCO)cs2)CCN1`: -3% and 0.38.
For `CC1(C)COCCN1C(=O)CCCCOc1cccc(C#N)c1`, the “% Inhibition” value is listed as -3% and the Z score amounted to 0.34.
The like results for `CCOCCN1CCCN(S(=O)(=O)N2CCCC2)CC1` were, in that order, -11% and 2.18.
The like results for `CCCN(Cc1c(C)nn(-c2ccccc2)c1Oc1ccccc1)C(=O)Nc1ccc(C(F)(F)F)cc1` were, in that order, -12% and 1.11.
The like results for `CN1CCN(S(=O)(=O)Cc2ccc(F)cc2)C[C@]12CCNC(=O)CC2` were, in that order, -5% and 0.68.
On to `CCn1ncnc1CNC(=O)N1CCC(c2ccc3cccnc3n2)CC1`, for which the “% Inhibition” value came to 20% and the Z score is -2.33.
On to `O=C(NCCCOC1CCOC1)NCC1CC1c1ccccc1` (stereo not given), for which the “% Inhibition” value turned out to be 1% and the Z score was -0.19.
As for `CS(=O)(=O)Nc1ccc(-n2ccnc2)cn1`, the “% Inhibition” value was -12% and the Z score was found to be 1.56.
The matching figures for `O=c1c2cnc3c(-c4ccc(Cl)cc4)cnn3c2ccn1CCN1CCOCC1`: -11% and 1.6.
`CN(CCC1(O)CCCC1)Cc1cc2ccccc2[nH]1`: the “% Inhibition” value is -6% and the Z score was 1.28.
The matching figures for `CC(N)C(=O)N1CCC(Oc2ccccc2Cl)C1` (stereo not given): -8% and 0.7.
Turning to `CCOc1ccc(C(=O)NCC2(O)CCCC2)cc1`, the “% Inhibition” value is reported as -5% and the Z score is reported as 0.86.
The like results for `Cc1cc(CN2CC(C)OC(C)C2)no1` (stereo not given) were, in that order, -7% and 1.37.
The like results for `COc1ccc([C@@H](CC(=O)N2CCCC2)c2cn(Cc3ccccc3)c3ccccc23)cc1` were, in that order, -8% and 0.98.
The like results for `CC(C)Cc1cc(C(=O)N[C@@H]2CCNC(=O)CC2)cc(O)n1` were, in that order, -1% and 0.14.
For `Cc1noc(CN(C)C(=O)CCn2nc(C)c(C)c2C)n1`, the “% Inhibition” value was -17% and the Z score was determined as 1.95.
As to `Cc1oc(-c2ccc3ccccc3c2)nc1CN(C)C1CCOCC1`, the “% Inhibition” value was -6% and the Z score is recorded as 0.92.
For the compound `N#Cc1nc(-c2cccs2)oc1N1CCCCC1`, the “% Inhibition” value is listed as -15% and the Z score stood at 2.08.
Consider `O=S(=O)(c1ccc(F)c(Cl)c1)N1CC[C@H](Oc2cc(C(F)(F)F)ccn2)C1`, for which the “% Inhibition” value was 3% and the Z score is -0.6.
As to `CCCc1nc(N2CCN(C(=O)CC(C)(C)C)CC2)c2c(-c3ccc4ccccc4c3)noc2n1`, the “% Inhibition” value worked out at 8% and the Z score is recorded as -1.43.
The matching figures for `c1ccc(COCCCN2CCc3nocc3C2)cc1`: 12% and -1.08.
The matching figures for `COc1ccc(-c2cc3n(n2)C[C@@](C)(C(=O)NCc2ccccc2OC)N(Cc2ccccc2C)C3=O)cc1`: 9% and -1.36.
With `Cc1nc(C)c(C)c(NCc2ccc(CN3CCC(O)CC3)cc2)n1`, the “% Inhibition” value is 6% and the Z score is -0.77.
Regarding `COc1ccc(NC(=O)CCC2CCN(Cc3ccc4ccccc4c3)CC2)c(OC)c1`, the “% Inhibition” value was -12% and the Z score came out at 1.74.
The like results for `CC(=O)NCC(=O)N1CCC[C@H](Oc2ccncn2)C1` were, in that order, 7% and -0.97.
Take `COc1ccc(Cl)cc1NC(=O)c1cc(O)ncn1`: the “% Inhibition” value is -3% and the Z score is on record as 0.57.
For the compound `O=C(O)c1ccc(S(=O)(=O)Nc2ccc(-n3cccn3)c(Cl)c2)c(F)c1`, the “% Inhibition” value is -1% and the Z score came out at 0.12.
Turning to `COC(=O)c1ncoc1C1CCN(C(=O)c2cc(C)cc(F)c2)CC1`, the “% Inhibition” value turned out to be 2% and the Z score is given as -0.26.
The matching figures for `CC1(C)C[C@@](C)(c2ccc(Cl)cc2)c2ccccc2N1C(=O)COc1ccccc1`: 14% and -1.69.
The like results for `c1ccc(-c2ncc[nH]2)c(OCCCCN2CCOCC2)c1` were, in that order, -11% and 1.05.

(Values after ChEMBL document CHEMBL4888484, “Replenishing the malaria drug discovery pipeline: Screening and hit evaluation of the MMV Hit Generation Library 1 (HGL1) against asexual blood stage Plasmodium falciparum ,using a nano luciferase reporter read-out” (2022).)
